The whole screen tested about 350,000 compounds, of which about 260 (0.074%) were called active. This list was built around the results that the source calls inconclusive (neither active nor inactive); the mix of calls is not that of the screen. Calls come from the whole dose curve; as a rule, active = well fitted inhibition curve with a large enough effect; inconclusive = small, poorly fitted or top-dose-only effect; inactive = no such curve, though single readings can be large or run the other way. Where the call is inconclusive, the potency comes from a doubtful curve fit.
Biological target: Ferritin light chain (Equus caballus) (UniProt P02791)
Assay: qHTS Assay for Identification of Novel General Anesthetics; note: nearly all actives have a fitted effect of over 20% in size
Settings: apoferritin/1-aminoanthracene competitive binding, fluorescence; activity change, negative = displacement: at 77.5 µM (top of the series)
Excerpt: Source: NIH Chemical Genomics Center [NCGC]
Assay Submitter: Roderic Eckenhoff, University of Pennsylvania
Screening Center PI: Christopher P. Austin, NIH
Probe Development: NIH Chemical Genomics Center [NCGC]
Anesthetic development has remained a largely empirical process. There are growing concerns about the cognitive effects of known general anesthetics and acceleration of the onset of neurodegenerative disease. The compounds' toxicity and multiple specific binding targets in the mammalian brain [4] has made them less attractive as drug leads. In this assay, a GABAergic mimetic model system, apoferritin and a profluorescent 1-aminoanthracene ligand (1-AMA), was used to construct a competitive binding assay for identification of novel general anesthetics. The assay was validated for 1-AMA using other known anesthetics, such as isoflurane (CID:3763) and propofol (CID: 4943), [6].
[1] S.L. Bianchi, T. Tran, C. Liu, S. Lin, Y. Li, J.M. Keller, R.G. Eckenhoff, and M.F. Eckenhoff, Brain and behavior changes in 12-month-old Tg2576 and nontransgenic mice exposed to anesthetics. Neurobiol Aging 29 (2008) 1002-10.
[2] Z. Xie, Y. Dong, U. Maeda, R.D. Moir, W. Xia, D.J. Culley, G. Crosby, and R.E. Tanzi, The inhalation anesthetic isoflurane induces a vicious cycle of apoptosis and amyloid beta-protein accumulation. J Neurosci 27 (2007) 1247-54.
[3] P. Honegger, and J.M. Matthieu, Selective toxicity of the general anesthetic propofol for GABAergic neurons in rat brain cell cultures.
[4] M.F. Eckenhoff, K. Chan, and R.G. Eckenhoff, Multiple specific binding targets for inhaled anesthetics in the mammalian brain. J Pharmacol Exp Ther 300 (2002) 172-9.
[5] C.A. Butts, J. Xi, G. Brannigan, A.A. Saad, S.P. Venkatachalan, R.A. Pearce, M.L. Klein, R.G. Eckenhoff, and I.J. Dmochowski, Identification of a fluorescent general anesthetic, 1-aminoanthracene. Proc Natl Acad Sci U S A 106 (2009) 6501-6.
[6] W.A. Lea, J. Xi, A. Jadhav, L. Lu, C.P. Austin, A. Simeonov, and R.G. Eckenhoff, A high-throughput approach for identification of novel general anesthetics. PLoS One 4 (2009) e7150.
Three uL of reagents (free 1-AMA (50% saturated solution of 1-aminoanthracene
in PBS) in columns 3, 4 as negative control and 1-AMA/apoferritin mixture (10 uM horse-spleen apoferritin in 50% saturated 1-aminoanthracene in PBS) in columns 1, 2, 5-48) was dispensed into 1536-well Greiner black assay plates. Compounds (23 nL) were transferred via Kalypsys pintool equipped with 1,536-pin array (10 nL slotted pins, V&P Scientific, San Diego, CA). Titration of the positive control, propofol, were delivered via pin transfer from separate control plates to the 2nd column of each assay plate. The starting concentration of the control, dissolved in DMSO, was at 160 mM, followed by two-fold dilution points in duplicate, for a total of 16 concentrations. The plates were incubated for 10 min at room temperature, and then read on an EnVision HTS multilabel reader (Perkin-Elmer, Waltham, MA) (end point read, 3 min/plate) using Fura2 BFP excitation filter (380 nm, bandwidth 10 nm) and fluorescein emission filter (535 nm, bandwidth 25 nm) set. A LANCE/DELFIA dichroic mirror with a cutoff wavelength at 400 nm was used to maximize signal accuracy and strength. Vehicle-only plates, with DMSO being pin-transferred to the entire column 5-48 compound area, were inserted uniformly at the beginning and the end of each library in order to monitor for and record any shifts in the background. Activity was computed as the normalized fluorescence response relative to free 1-AMA and 1-AMA/apoferritin complex values. Concentration-effect relationships were derived by using curve fitting algorithms developed in-house (http://ncgc.nih.gov/pub/openhts/). A four parameter Hill equation was fitted to the concentration-response data by minimizing the residual error between the modeled and observed responses.
% is set by controls: 0 for no effect and ±100 for the full control effect; potency is the fitted concentration of half-maximal effect; tags give direction and shape of the fitted curve.

Sequence of UniProt P02791 (P02791 whole entry, looked up): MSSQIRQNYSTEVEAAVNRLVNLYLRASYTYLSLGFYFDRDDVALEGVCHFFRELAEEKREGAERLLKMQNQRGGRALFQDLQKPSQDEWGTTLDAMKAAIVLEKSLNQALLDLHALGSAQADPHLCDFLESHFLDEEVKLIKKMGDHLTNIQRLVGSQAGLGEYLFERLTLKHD

Activity change, negative = displacement, inactive:
COc1cc2c(O)c3c(c(-c4ccc5c(c4)OCO5)c2cc1OC)C(=O)OC3 -7.75%
COc1cccc(NC(=O)CSC2=NN3CCCC(=O)N=C3S2)c1 2.73%
CCCCOc1ccc(C(=O)CCN2CCOCC2)cc1 -21.3%
O=C1c2ccccc2C(=O)N1CCc1nc(-c2ccccn2)no1 -17.8%
O=C(CSc1cccc[n+]1[O-])c1ccccc1Br -17.8%
O=C(NCc1ccco1)C1CCN(S(=O)(=O)c2cccc([N+](=O)[O-])c2)CC1 -7.05%
Cc1ccc(OCC(=O)Nc2ccc3nc(SCC(=O)N4CCCC4)sc3c2)cc1 -5.65%
CC(C)CN(Cc1c(O)ccc2c3c(c(=O)oc12)CCC3)CC(C)C 51.1%
c1ccc(Cn2ncc3c(NCc4ccco4)ncnc32)cc1 -11.4%
Cc1cc(C)c2sc(N(Cc3cccnc3)C(=O)CCS(=O)(=O)c3ccccc3)nc2c1 -2.67%
COC(=O)C1=C[C@@H](C(=O)OC)C2C3=C(C(=O)[C@]2(C)NC(=O)c2ccccc2)[C@H](C)n2c(=O)n(C)c(=O)n2[C@@H]3C1 (some centres not stated) 2.81%
CCn1c(=O)n(CC)c2cc(N3CCCC3)c(NC(=O)c3cc(Br)ccc3OC)cc21 -10.1%
COC(=O)C1=CN(C(C)C)C=C(C(=O)OC)C1c1cc(Br)c(OC)c(OC)c1 500%
COc1ccc(-c2ccccc2C2NC(C(=O)O)CCC2C)cc1 (configuration not stated) -1.35% [at 15.3 µM]
CC(=O)c1ccc(C2CC34CNS(=O)(=O)C3CC2O4)cc1 (configuration not stated) -0.882%
Cc1ccc(NCC(O)Cn2cnc3c2c(=O)n(C)c(=O)n3C)cc1 (configuration not stated) -7.25%
O=C(O)c1ccccc1OS(=O)(=O)O 4.33%

Potency, inconclusive:
O=C(O)CN1C(=O)/C(=C\c2cccc(OCc3ccc(Cl)cc3)c2)SC1=S 28.2 µM [inhibitor, partial curve]
CC(Cc1cccs1)NC(=O)NC1CCCCC1 (configuration not stated) 50.1 µM [inhibitor, single point]
Cc1ccc(C)n1-c1nnc(N2CCCC(C(=O)Nc3ccc(C(C)C)cc3)C2)s1 (configuration not stated) 12.6 µM [inhibitor, partial curve]
COc1ccc(C(=O)NCc2nnc(SCC(=O)N3CCCCCC3)o2)cc1OC 35.5 µM [inhibitor, single point]
O=C(CSc1ccccc1)Nc1nnc(COc2ccc(Cl)cc2)s1 39.8 µM [inhibitor, single point]
Cc1ccc(NC(=S)NC(C)(C)C)c([N+](=O)[O-])c1 25.1 µM [inhibitor, single point]
CCCn1c(C)cc(C(=O)COC(=O)c2cc(S(=O)(=O)NCC(C)C)c(Cl)cc2Cl)c1C 17.8 µM [inhibitor, partial curve]
COc1ccc(-c2nnc(SCC(=O)N3CCCC(C)C3)o2)c(OC)c1 (configuration not stated) 39.8 µM [inhibitor, partial curve]
CN(CC(=O)NCCCc1ccccc1)Cc1ccc(Br)cc1 56.2 µM [inhibitor, single point]
Fc1cccc(NC(=S)N2CCc3ccccc32)c1 31.6 µM [inhibitor, single point]
COc1nnc(-c2ccc(N3CCOCC3)c(NC(=O)c3ccc(C)cc3)c2)c2ccccc12 3.55 µM [inhibitor, partial curve, poor fit]
COc1ccc(Cl)cc1NC(=O)CN(C(=O)c1ccco1)C1CCCCC1 14.1 µM [inhibitor, partial curve]
Cc1c(Cl)c([N+](=O)[O-])nn1Cc1ccc(C(=O)N/N=C\c2cccc(Br)c2)o1 5.01 µM [inhibitor, partial curve]
CCOC(=O)c1c(NC(C)=O)sc2c1CCC(C=O)=C2Sc1ccccc1 17.8 µM [inhibitor, partial curve]
Cc1cc(C)c2cc(CN(Cc3cccnc3)C(=O)c3ccc(F)cc3)c(Cl)nc2c1 31.6 µM [inhibitor, partial curve]
c1ccc(Cc2nnc3sc(-c4ccco4)nn23)cc1 28.2 µM [inhibitor, partial curve]
CCOC(=O)C1CCCN(C(=O)c2cc(-c3ccc(C)cc3)nc3ccccc23)C1 (configuration not stated) 35.5 µM [inhibitor, partial curve]
O=S(=O)(c1ccccc1)C(/C=N\O)/C=C/c1ccccc1 (configuration not stated) 31.6 µM [inhibitor, partial curve]
Cc1nnc(SCC(=O)c2ccc(Cl)cc2)s1 31.6 µM [inhibitor, single point]
CCOc1cc(/C=C2\N=C(SC)SC2=O)cc([N+](=O)[O-])c1OC(C)=O 31.6 µM [inhibitor, partial curve]
CCc1ccc2c(COC(=O)CNS(=O)(=O)c3ccc(NC(C)=O)cc3)cc(=O)oc2c1 25.1 µM [inhibitor, single point]
Nc1cc(C(=O)N2CCN(c3ccc([N+](=O)[O-])cc3)CC2)ccc1N1CC2CC(C1)c1cccc(=O)n1C2 (configuration not stated) 31.6 µM [inhibitor, partial curve]
O=C(c1cccc([N+](=O)[O-])c1)N1CCc2ccccc21 25.1 µM [inhibitor, partial curve]
CCC(C)NC(=O)c1csc2c1CCCCC2 (configuration not stated) 25.1 µM [inhibitor, single point]
COc1cc(C(=O)Nc2ccc(S(=O)(=O)NC(C)(C)C)cc2)cc(OC)c1OC 35.5 µM [inhibitor, partial curve]
Cc1ccc(C)c(S(=O)(=O)c2cn(Cc3ccccc3)c3cc(F)c(F)cc3c2=O)c1 2.82 µM [inhibitor, full curve]
Oc1ccc(Nc2nc(N3CCCC3)c3ccccc3n2)cc1 25.1 µM [inhibitor, partial curve, poor fit]
COc1ccc(C(=O)N/N=C/c2ccc3cccc(O)c3n2)cc1 35.5 µM [inhibitor, partial curve]
Cc1cc(C(=O)COC(=O)c2ccc(O)cc2)c(C)n1CCc1ccc(F)cc1 6.31 µM [inhibitor, full curve, poor fit]
Cc1ccc(Cl)cc1NC(=O)COC(=O)CC(C)(C)C 35.5 µM [inhibitor, single point]
CC(C)(C)C1CCc2oc3ccc(NS(=O)(=O)c4cc(Cl)ccc4Cl)cc3c2C1 (configuration not stated) 8.91 µM [inhibitor, partial curve]
O=C(CSCc1ccco1)c1ccc(Cl)s1 22.4 µM [inhibitor, partial curve]
O=c1c2ccccc2nc2n1CC/C2=C/N1CCN(c2cccc(C(F)(F)F)c2)CC1 35.5 µM [inhibitor, partial curve]
Cc1cc(C(F)(F)F)n2nc(-c3cnn(C)c3C(F)(F)F)c(Br)c2n1 35.5 µM [inhibitor, partial curve]
CCOc1ccc(/C=N/OCC(=O)Nc2ccc3c(c2)OCO3)cc1 25.1 µM [inhibitor, single point]
Cc1cc(C)c(C(=O)CC(=O)c2ccccc2Cl)c(O)c1 25.1 µM [inhibitor, single point]
CCCCOC(=O)Nc1ccc(C)c(Cl)c1 15.8 µM [inhibitor, partial curve]
Cc1cc(C)c2cc(C(c3nnnn3CC3CCCO3)N3CCN4CCCC4C3)c(=O)[nH]c2c1 (configuration not stated) 50.1 µM [inhibitor, single point]
Cc1ccc(C2CC(c3ccco3)n3nc(N)nc3N2)cc1 (configuration not stated) 56.2 µM [inhibitor, single point]
Cc1ccc(CNC(=S)NC2CCCCC2)cc1 25.1 µM [inhibitor, single point]
CSC(=CC(=O)c1ccccc1)SC 39.8 µM [inhibitor, single point]
COc1cccc(OCc2cc(/C=N/NC(=O)c3ccn[nH]3)ccc2OC)c1 31.6 µM [inhibitor, partial curve]
O=C(CSc1n[nH]c(-c2ccco2)n1)N1c2ccccc2Sc2ccccc21 15.8 µM [inhibitor, partial curve]
O=C(CSc1nnc(CNC(=O)c2cccs2)o1)c1ccc(Cl)cc1 35.5 µM [inhibitor, partial curve]
Cc1ccsc1/C=N/NC(=O)CNC(=O)c1ccccc1 31.6 µM [inhibitor, partial curve]
O=[N+]([O-])c1ccc2c(c1)CNc1ccccc1O2 31.6 µM [inhibitor, single point]
CCC(C(=O)Nc1ccc(OC)c(Cl)c1)c1ccccc1 (configuration not stated) 50.1 µM [inhibitor, single point]
COc1ccc(C)cc1NC(=O)NC1CCCCCCC1 10 µM [inhibitor, partial curve]
O=C1C(Cl)=C(N2CCCCC2)C(=O)N1c1ccccc1 22.4 µM [inhibitor, partial curve]
Cc1noc(C)c1COC(=O)/C=C/c1ccccc1Cl 35.5 µM [inhibitor, partial curve]
